We go through 45 compounds from publication PMC4336329 (PLoS ONE, 2015).

Hit rate of the full screen: of about 310,000 compounds, about 2,200 (0.71%) showed an effect of 50% or more. Effects have a minus sign here. This is one part of the list.

The target in this test is human ether-à-go-go-related gene (hERG) potassium channel (human, UniProt Q12809). The test is described as follows: primary screen, population patch clamp on CHO cells stably expressing hERG.
Sequence of human ether-à-go-go-related gene (hERG) potassium channel (Q12809 whole entry, looked up): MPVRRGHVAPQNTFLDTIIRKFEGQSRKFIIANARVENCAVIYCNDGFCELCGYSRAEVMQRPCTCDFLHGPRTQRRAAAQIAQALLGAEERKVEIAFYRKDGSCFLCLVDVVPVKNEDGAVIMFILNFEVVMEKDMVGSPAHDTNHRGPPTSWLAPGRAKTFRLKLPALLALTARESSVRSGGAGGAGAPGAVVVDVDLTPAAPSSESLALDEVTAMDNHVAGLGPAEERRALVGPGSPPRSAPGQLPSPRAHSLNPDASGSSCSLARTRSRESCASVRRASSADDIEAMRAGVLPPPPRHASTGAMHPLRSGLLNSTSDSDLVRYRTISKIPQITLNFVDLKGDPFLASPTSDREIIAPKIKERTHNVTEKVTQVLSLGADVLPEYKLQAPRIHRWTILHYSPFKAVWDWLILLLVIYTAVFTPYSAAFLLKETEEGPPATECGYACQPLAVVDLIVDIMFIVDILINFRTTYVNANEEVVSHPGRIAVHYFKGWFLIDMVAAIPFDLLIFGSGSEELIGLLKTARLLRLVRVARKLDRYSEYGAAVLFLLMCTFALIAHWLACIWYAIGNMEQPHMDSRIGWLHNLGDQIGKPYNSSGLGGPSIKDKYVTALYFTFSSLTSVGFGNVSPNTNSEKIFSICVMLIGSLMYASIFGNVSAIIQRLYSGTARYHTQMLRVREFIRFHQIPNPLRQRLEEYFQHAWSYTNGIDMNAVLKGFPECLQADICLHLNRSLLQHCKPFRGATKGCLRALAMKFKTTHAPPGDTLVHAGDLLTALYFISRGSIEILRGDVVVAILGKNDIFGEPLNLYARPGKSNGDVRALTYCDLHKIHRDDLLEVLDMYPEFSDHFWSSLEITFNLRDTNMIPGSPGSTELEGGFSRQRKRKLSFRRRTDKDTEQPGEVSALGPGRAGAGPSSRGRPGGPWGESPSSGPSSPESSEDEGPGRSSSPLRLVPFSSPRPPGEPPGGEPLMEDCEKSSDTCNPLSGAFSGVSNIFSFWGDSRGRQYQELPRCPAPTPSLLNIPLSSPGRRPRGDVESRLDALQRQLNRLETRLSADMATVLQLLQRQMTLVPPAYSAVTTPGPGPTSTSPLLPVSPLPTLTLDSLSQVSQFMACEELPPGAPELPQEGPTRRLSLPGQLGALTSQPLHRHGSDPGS
As to `COc1ccc(CCNc2ccc(S(=O)(=O)N3CCN(C)CC3)cc2[N+](=O)[O-])cc1`, the “hERG current change (%, negative = inhibition) at 1uM” value worked out at 8.15%.

Take `CCOC(=O)N1CCN(C(=O)c2c[nH]c3ccc(S(=O)(=O)N(C)c4ccc(F)cc4)cc3c2=O)CC1`: the “hERG current change (%, negative = inhibition) at 1uM” value amounted to 14.9%.

Turning to `COc1cccc(NC(=O)COC(=O)CCn2c(C)csc2=O)c1`, the “hERG current change (%, negative = inhibition) at 1uM” value is reported as 9.14%.

On to `CCCCn1ccc(=O)c2c(C(F)(F)F)nccc21`, for which the “hERG current change (%, negative = inhibition) at 1uM” value amounted to 5.52%.

On to `COc1cccc(C2=NOC(C(=O)N3CCOCC3)C2)c1` (stereo not drawn), for which the “hERG current change (%, negative = inhibition) at 1uM” value was found to be 10.7%.

As to `N#Cc1c(NC(NC(=O)c2ccco2)C(=O)c2ccccc2)sc2c1CCCC2` (stereo not drawn), the “hERG current change (%, negative = inhibition) at 1uM” value is recorded as 10.9%.

For the compound `CCOC(=O)C1=C(C)NC(C)=C(C(=O)OCC)C1C(=O)OCC(=O)N(C)C`, the “hERG current change (%, negative = inhibition) at 1uM” value came out at 16.7%.

On to `COCc1cc(C)nc(SCC(=O)NCc2ccco2)c1C#N`, for which the “hERG current change (%, negative = inhibition) at 1uM” value is recorded as -4.02%.

As for `COc1ccccc1NC(=O)Cc1noc(CSc2nnc(C)n2C)n1`, the “hERG current change (%, negative = inhibition) at 1uM” value was determined as 4.89%.

Regarding `O=C(CCc1nc(-c2ccccc2Cl)no1)NCC1CCCO1` (stereo not drawn), the “hERG current change (%, negative = inhibition) at 1uM” value is 11.7%.

`Cc1cccc(N2CC(C(=O)Nc3ccccc3N3CCCC3)CC2=O)c1C` (stereo not drawn): the “hERG current change (%, negative = inhibition) at 1uM” value is given as -4.76%.

`COCCCNC(=O)c1c[nH]c2ccc(S(=O)(=O)N3CCc4ccccc43)cc2c1=O`: the “hERG current change (%, negative = inhibition) at 1uM” value is on record as 12.8%.

For `Cc1ccc(C2CC(c3ccc(NS(C)(=O)=O)cc3)=NN2C(=O)c2ccco2)cc1` (stereo not drawn), the “hERG current change (%, negative = inhibition) at 1uM” value is recorded as -21.1%.

In the case of `COc1ccc(NC(=O)CN(C)S(=O)(=O)c2ccc(Br)s2)cc1OC`, the “hERG current change (%, negative = inhibition) at 1uM” value came to 13.6%.

Consider `N/C(=N/OC(=O)c1ccccc1Cl)c1ncc([N+](=O)[O-])s1`, for which the “hERG current change (%, negative = inhibition) at 1uM” value amounted to 18.4%.

As to `CCOC(=O)C(NC(=O)c1cccc(Cl)c1)(Nc1nnc(C)s1)C(F)(F)F` (stereo not drawn), the “hERG current change (%, negative = inhibition) at 1uM” value came to 7.76%.

`C=C(C)COc1ccc(-c2ncnc(C(F)(F)F)c2-c2ccc(OC)cc2)c(O)c1`: the “hERG current change (%, negative = inhibition) at 1uM” value is listed as 15.1%.

Consider `C=CCn1c(-c2csc(-c3ccc(OC)c(OC)c3)n2)n[nH]c1=S`, for which the “hERG current change (%, negative = inhibition) at 1uM” value was determined as 6.02%.

In the case of `Cn1c(CNC(=O)c2ccccc2F)nnc1SCC(=O)c1ccccc1`, the “hERG current change (%, negative = inhibition) at 1uM” value came to 3.2%.

Regarding `Cc1ccc(C(=O)N/C(=C\c2cn(S(=O)(=O)N(C)C)c3ccccc23)C(=O)N2CCCC2)cc1`, the “hERG current change (%, negative = inhibition) at 1uM” value was found to be 16%.

Turning to `CC(=O)N1CCN(c2ccc(NCc3ccccc3)cc2)CC1`, the “hERG current change (%, negative = inhibition) at 1uM” value was 14.3%.

For the compound `Cc1ccc(CS(=O)Cc2ccc(C(=O)NC3CCCC(C)C3C)o2)cc1` (stereo not drawn), the “hERG current change (%, negative = inhibition) at 1uM” value stood at 24.1%.

As for `COc1ccccc1/C=C/C(=O)NCC(=O)N1CCC(N(C)C2CCCC2)CC1`, the “hERG current change (%, negative = inhibition) at 1uM” value is -8.9%.

For `Cn1nccc1C(=O)N1CCN(c2cccc(C(F)(F)F)c2)CC1`, the “hERG current change (%, negative = inhibition) at 1uM” value came out at 4.91%.

`CC(CC(=O)NCCc1ccc(Cl)cc1)S(=O)(=O)c1ccc2c(c1)NC(=O)CO2` (stereo not drawn): the “hERG current change (%, negative = inhibition) at 1uM” value is -9.21%.

As for `CCNc1nnc(CCn2nc(C)c(Br)c2C)s1`, the “hERG current change (%, negative = inhibition) at 1uM” value was 8.64%.

For the compound `Cc1nn(CC(C)C)c(Cl)c1C(=O)N(C)CC(=O)Nc1c(Cl)cccc1Cl`, the “hERG current change (%, negative = inhibition) at 1uM” value is given as 15.3%.

Consider `COc1ccc(C2=NN(c3nc(C(=O)O)cs3)C(O)(C(F)(F)F)C2)c(OC)c1` (stereo not drawn), for which the “hERG current change (%, negative = inhibition) at 1uM” value is reported as 16.1%.

Turning to `CC(C)(C)c1cc(S(=O)(=O)CCc2ccccn2)cc(C(C)(C)C)c1F`, the “hERG current change (%, negative = inhibition) at 1uM” value came out at 16.2%.

`Cc1ccc(OCC(=O)Nc2ccccc2C(=O)NC2CC2)cc1C`: the “hERG current change (%, negative = inhibition) at 1uM” value is recorded as -2.3%.

Regarding `O=C(c1cccc(F)c1)N1CCN(Cc2ccco2)CC1`, the “hERG current change (%, negative = inhibition) at 1uM” value is given as 11.2%.

As to `CC1C=CCC2C(=O)N(c3cc(Cl)ccc3O)C(=O)C12` (stereo not drawn), the “hERG current change (%, negative = inhibition) at 1uM” value worked out at 10%.

Take `COc1cc(CNc2ccc(N3CCN(C(C)=O)CC3)cc2)ccc1OCc1ccc(F)cc1`: the “hERG current change (%, negative = inhibition) at 1uM” value worked out at 1.27%.

Turning to `Cc1oc2c(C)c3oc(=O)c4c(c3cc2c1C)CCCC4`, the “hERG current change (%, negative = inhibition) at 1uM” value is 5.27%.

Turning to `Cc1ccc2c(Cl)c(C(=O)NCc3cccnc3)sc2c1`, the “hERG current change (%, negative = inhibition) at 1uM” value is 4.38%.

With `O=C(NCc1ccc2c(c1)OCO2)c1cc2c(s1)CS(=O)(=O)C2`, the “hERG current change (%, negative = inhibition) at 1uM” value was 12.5%.

Turning to `CNc1cc(F)nc(F)n1`, the “hERG current change (%, negative = inhibition) at 1uM” value is recorded as 8.25%.

Turning to `CC(=O)c1ccc2c(c1)OCCOCCOCCOCCO2`, the “hERG current change (%, negative = inhibition) at 1uM” value is on record as -3.2%.

Turning to `Cc1c(N(C)C(=O)C23CC4CC(CC(C4)C2)C3)c(=O)n(-c2ccccc2)n1C`, the “hERG current change (%, negative = inhibition) at 1uM” value stood at 4.44%.

For the compound `Nc1nnc(SCC(=O)OCc2ccc(F)cc2)s1`, the “hERG current change (%, negative = inhibition) at 1uM” value is reported as 10.8%.

In the case of `CN1CCc2c(n(CC(O)CN(CCO)CCO)c3ccccc23)C1=O.Cl` (stereo not drawn), the “hERG current change (%, negative = inhibition) at 1uM” value came to 6.46%.

`COc1ccc(NC(=S)NC(C)C(c2ccccc2)N2CCOCC2)cc1` (stereo not drawn): the “hERG current change (%, negative = inhibition) at 1uM” value came to 11.2%.

Take `Cl.O=C(Cc1ccccc1)OCCN1CCCCC1`: the “hERG current change (%, negative = inhibition) at 1uM” value was found to be 12.1%.

As to `Cc1ccc(C)c(-n2nnnc2SCC(=O)Nc2c(C)n(C)n(-c3ccccc3)c2=O)c1`, the “hERG current change (%, negative = inhibition) at 1uM” value turned out to be 9.93%.

As to `O=C(Nc1ncc(Cc2cccc(Cl)c2)s1)C1=NCCN1`, the “hERG current change (%, negative = inhibition) at 1uM” value is listed as 10.7%.
